Results on 45 sequences are retold here after the supplement of paper PMC11417369.

± gives the standard deviation of the averaged measurements. Some of the results follow.

In this assay the test system is PfAP2-G AP2 domain (GST-tagged). Kind of assay: gcPBM binding intensity (ln(normalized median fluorescence intensity)); higher = stronger DNA binding. An outline of the steps:
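GST-tagged P. falciparum DNA-binding domains, expressed in E. coli (about 25 μg on average), were applied for 1 h to an Agilent 4 × 180k array of primer-extended double-stranded 36-bp intergenic genomic probes plus negative controls. The binding buffer was 1× PBS with 1% milk, 0.2 mg/ml BSA, 0.5% salmon testes DNA and 0.03% Triton X-100. Bound protein was detected with Alexa488 anti-GST antibody and scanned at 488 nm. Binding intensity is the highest Masliner-normalised natural-log median intensity across replicate spots of either probe orientation.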
Turning to “AAGTATATACATATATGTACACATTGTCAGATAGAA [XGTACX_site1236]”, the “gcPBM binding intensity (ln)” value is 11.4 ± 0.78.
Regarding “ATAGAATAATATTGTAGTACTAAAAATATTCATTTT [XGTACX_site6447]”, the “gcPBM binding intensity (ln)” value was found to be 11.4 ± 0.92.
In the case of “TCTATATATAAATATAAATATATATATATAATGTTA [TGCATGCA_negctrl_site92]”, the “gcPBM binding intensity (ln)” value amounted to 9.205 ± 0.092.
TAAAAAACAAAACAGGTGCTATATAATTTTCATTTT: the “gcPBM binding intensity (ln)” value came to 9.745 ± 0.078.
For the sequence “AAAGAAATAAGGTGCACACATATACAGATATATATA [CACACA_site4399]”, the “gcPBM binding intensity (ln)” value was determined as 10.4 ± 0.47.
“ATATATTTGATTTACACACTTACAATGTATATAAAT [CACACA_site2993]”: the “gcPBM binding intensity (ln)” value was 10.4 ± 0.26.
Turning to “CTCTTTTTTTGCAAAAGTACAAATGGGGATATATTT [XGTACX_site5813]”, the “gcPBM binding intensity (ln)” value was determined as 11.3 ± 0.71.
The value for “TTAAATAAAAAAATAACACACATATAAATATATATG [CACACA_site3175]” was 9.87 ± 0.17; that for “TTACATATTTTTTAACGTACATAAATATATATGTAT [XGTACX_site8406]” was 11.4 ± 0.79.
Regarding “ACTCAAACCTTTAGAGTGCAAAAAAAAAAAAAAAAA [GTGCAC_site9952]”, the “gcPBM binding intensity (ln)” value was 9.89 ± 0.32.
The value for “TTGTAAAAATTAATACATATATATATATATATATAT [CACACA_negctrl_site6]” was 9.9 ± 0.62; that for “ATATGTTAAATTATTCGTACGTAAAAAAAAATGGAT [XGTACX_site3465]” was 11.3 ± 0.76; that for “ATAATTATCATAGGATGTACATATTTATTTTGTATA [XGTACX_site7797]” was 11.2 ± 0.67.
Consider “TAATTTCATCATATTTGTTCCTTCTCAAAATTTTTT [CACACA_negctrl_site217]”, for which the “gcPBM binding intensity (ln)” value was found to be 9.99 ± 0.099.
For “GCATTATTTACCACAACACACAAATATTTACCAATC [CACACA_site2669]”, the “gcPBM binding intensity (ln)” value worked out at 10.5 ± 0.43.
In the case of “ACTATATATTTAATATGTACACATATTTCTGTCGAT [XGTACX_site6878]”, the “gcPBM binding intensity (ln)” value was found to be 11.5 ± 0.79.
Take “TTCCTAAGAATAATCAGTACACATAAAAAGAACATA [XGTACX_site7861]”: the “gcPBM binding intensity (ln)” value worked out at 11.4 ± 0.78.
With “TTTTATATTTTTTGTGGTACATTTAGAGAACCAAAA [XGTACX_site1695]”, the “gcPBM binding intensity (ln)” value turned out to be 11.4 ± 0.79.
As for “TGTAAGTTGATATAATGTACATGTTTGATTTTTTTT [XGTACX_site7687]”, the “gcPBM binding intensity (ln)” value is 11.1 ± 0.58.
“TATTCATTTATAAGCTGTACACATTAATTTGAGCTA [XGTACX_site3616]”: the “gcPBM binding intensity (ln)” value is 11.3 ± 0.87.
As for “ATTAGGATATATTAAAGTACTAATATAATACATTTT [XGTACX_site7386]”, the “gcPBM binding intensity (ln)” value amounted to 10.7 ± 0.42.
Next, “ATATAGTATTAATTTGCATGTCATGTATTAGGTCGA [TGCATGCA_site540]”: 9.845 ± 0.021; “CTTTTTTTAATATGCACACATATATTTTATATATTA [CACACA_site2077]”: 10.2 ± 0.11.
Take “AAAAAGGGTATTATTACACACACGTAAATATTAATA [CACACA_site101]”: the “gcPBM binding intensity (ln)” value came out at 10.1 ± 0.18.
On to “AGATTTATACAAATATGTACACACTAAATATATATT [XGTACX_site864]”, for which the “gcPBM binding intensity (ln)” value was determined as 11.5 ± 0.74.
The value for “CAACAAAAATTATTTACACACAAAAGGCAAGGAAAT [CACACA_site1971]” was 10.5 ± 0.28; that for “TAACTAAGGAATAATACACACAGAAATATAGATTTA [CACACA_site6293]” was 9.93 ± 0.13; that for TCTATTTTCTTATGAATGCACTAATTTATAAAACGT was 10.1 ± 0.13.
Turning to “CTATTATAATATTTTACACACCATGTAAGATATATA [CACACA_site7492]”, the “gcPBM binding intensity (ln)” value stood at 9.935 ± 0.064.
Regarding “TTTATTTTATCATTTGCACACGCACCCAGACATAAA [CACACA_site4347]”, the “gcPBM binding intensity (ln)” value was 10.6 ± 0.57.
The value for “TTTTTTCATTAGAAAACATGCAAATGTTTTTCACTT [TGCATGCA_site127]” was 9.71 ± 0.2; that for “TTTATAAACAAATGAACACACAAACATATATATATA [CACACA_site5713]” was 10.04 ± 0.078.
As for “ATTCTTTTTTTTTGGAAATGTATTTTTATGTTTTGT [TGCATGCA_negctrl_site426]”, the “gcPBM binding intensity (ln)” value was found to be 9.81 ± 0.085.
For “ATTTTAGATGAAAAAGCACACAACATATATATATAT [CACACA_site2295]”, the “gcPBM binding intensity (ln)” value turned out to be 10.2 ± 0.43.
Next, CTCTTATGCTAGGAAGTGCAATAGTATGGGTACCAC: 11.5 ± 0.95; “TCATTTTATTTTTTCACACACACATATATATATATA [CACACA_site3333]”: 10.2 ± 0.28; “TAATATATATAAACATGTACAAATCAAAAACAAAAG [XGTACX_site4076]”: 11 ± 0.41.
On to “ACGTTGAAGAAATACACATGCATATTCTATATATAT [TGCATGCA_site76]”, for which the “gcPBM binding intensity (ln)” value amounted to 9.83 ± 0.057.
Turning to “TATATTTTTTAAAAAGCATGCAAAAAATAATGATCA [TGCATGCA_site48]”, the “gcPBM binding intensity (ln)” value is 9.89 ± 0.33.
As for “GTATAATATGAACACACACACACACGCAAAAAAAAA [CACACA_site7036]”, the “gcPBM binding intensity (ln)” value turned out to be 10.5 ± 0.39.
With “TTAACTCAAGAGTGTACACATATATATATATATATA [CACACA_site4334]”, the “gcPBM binding intensity (ln)” value is 11.6 ± 1.
As to “AATACCCATTTTAGTACACACTTAAAAAATTATTTT [CACACA_site5611]”, the “gcPBM binding intensity (ln)” value was 11.6 ± 1.1.
As to “TTGCCCATTTCATTAACACACAAATGTTTATATTCT [CACACA_site4569]”, the “gcPBM binding intensity (ln)” value is 10.17 ± 0.071.
For the sequence “TGTAAAACTGAAAAGGGTACATATAAATATATATAT [XGTACX_site69]”, the “gcPBM binding intensity (ln)” value is 11.2 ± 0.79.
For the sequence “ATTTATTTTTATATAACACACAAAGTATAATATAAC [CACACA_site3582]”, the “gcPBM binding intensity (ln)” value was found to be 10 ± 0.21.
